Laboratory results published in PMC6919601, “Identification of Plasmodium dipeptidyl aminopeptidase allosteric inhibitors by high throughput screening” (PLoS ONE, 2019).
Out of some 110,000 compounds screened, about 230 (0.21%) showed an effect of 50% or more. The list shows a part of the results.

Each compound was assayed against DPAP1 (Plasmodium falciparum, UniProt Q8IIJ9) (assay: primary screen, percent inhibition; read by cleavage of a fluorogenic dipeptide substrate; higher = more effect of the substance).
Chain of DPAP1 (Q8IIJ9 whole entry, looked up): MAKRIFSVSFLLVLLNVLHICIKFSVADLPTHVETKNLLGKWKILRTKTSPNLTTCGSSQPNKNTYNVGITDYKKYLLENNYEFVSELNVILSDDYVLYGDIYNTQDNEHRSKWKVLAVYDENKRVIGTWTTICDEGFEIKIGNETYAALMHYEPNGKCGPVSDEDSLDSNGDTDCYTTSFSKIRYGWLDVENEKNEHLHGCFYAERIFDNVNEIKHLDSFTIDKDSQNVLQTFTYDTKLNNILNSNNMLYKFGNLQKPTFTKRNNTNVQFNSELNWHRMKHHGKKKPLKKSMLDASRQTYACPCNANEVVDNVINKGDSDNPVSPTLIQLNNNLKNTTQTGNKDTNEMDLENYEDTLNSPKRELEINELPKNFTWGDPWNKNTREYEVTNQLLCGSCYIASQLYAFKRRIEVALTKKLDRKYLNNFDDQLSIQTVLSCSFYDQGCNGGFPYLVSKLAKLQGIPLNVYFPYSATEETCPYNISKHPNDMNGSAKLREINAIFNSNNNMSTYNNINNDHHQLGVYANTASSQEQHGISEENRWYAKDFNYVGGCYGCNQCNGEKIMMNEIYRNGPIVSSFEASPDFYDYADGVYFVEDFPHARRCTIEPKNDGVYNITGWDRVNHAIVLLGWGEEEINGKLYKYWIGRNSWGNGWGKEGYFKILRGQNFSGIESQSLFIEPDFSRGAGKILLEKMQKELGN
Design: species or system P. falciparum D10 trophozoite lysates; single well
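Also: 30 min substrate incubation versus DMSO and 10 µM JCP410 controls.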

Row | Compound | % Inhibition @ 10 uM [%]
1 | COc1ccc(-c2cc(C(F)(F)F)nc(N(C)Cc3ccccc3)n2)cc1OC | 2.59
2 | COc1ccc(-n2nc3c(c2NC(=O)c2ccc(C(=O)c4ccccc4)cc2)CS(=O)(=O)C3)cc1 | 5.35
3 | O=C(NCc1ccc(Cl)cc1)c1cc(-c2ccc(Cl)cc2)[nH]n1 | -0.356
4 | Cc1cccc(NC(=O)CSc2nc3nc(C)cc(C)n3n2)c1 | -4.56
5 | CCOC(=O)c1cnc(SCc2cc(=O)n3ccccc3n2)nc1N | -3.01
6 | CCCCn1c(=N)n(CC(O)c2ccc(C)cc2)c2ccccc21 (stereo not drawn) | 0.313
7 | C=CCC(NC1CCCCC1)c1ccco1 (stereo not drawn) | -3.46
8 | COc1ccc(C(=O)N2CCN(c3ccc(Cl)cc3)CC2)c(OC)c1 | 5.63
9 | Oc1nncc(NCc2ccccc2)c1Br | -4.84
10 | CN1CCc2nc(S)c(C#N)c(-c3ccsc3)c2C1 | -2.8
11 | COc1ccc(OC)c(-c2cc(C(=O)O)c3cc(C)ccc3n2)c1 | -0.318
12 | CCc1ccc(C2NC(=O)c3ccccc3N2)cc1 (stereo not drawn) | 2.33
13 | CCc1ccccc1-n1c(C)cc(/C=C2/NC(=O)NC2=O)c1C | -1.06
14 | O=C(O)CSc1cccc(C(=O)Nc2ccccc2C(=O)O)c1 | 1.42
15 | CCOC(=O)C1CCCCN1Cc1ccccc1 (stereo not drawn) | -5.61
16 | Cn1c(=O)c2sccc2n2c(CCC(=O)N3CCN(c4ncccn4)CC3)nnc12 | -0.326
17 | Cc1cccc(C)c1NC(=O)c1c(O)c2ccccc2n(CCC(C)C)c1=O | -9.21
18 | COCCCn1c(CCC(=O)O)ccc1-c1ccc(OC)cc1 | -1.15
19 | COc1ccccc1C(NC(=O)Cc1ccccc1)c1c(O)ccc2ccccc12 (stereo not drawn) | -1.48
20 | CCSc1ncc(Cl)c(C(=O)Nc2sc3c(c2C(=O)NCc2cccnc2)CCC3)n1 | 3.77
21 | COc1cc2c(cc1OC)CN(C(=O)CSc1ncnc3sc(C)c(C)c13)CC2 | -1.04

Row | Compound | % Inhibition @ 10 uM [%]
22 | Cc1ccc(CNC(=O)CCc2nnc3n(CCc4ccccc4)c(=O)c4ccccc4n23)cc1 | 5.68
23 | Cc1ccc(C(=O)N/C(=C/c2cccs2)C(=O)Nc2cccc(F)c2)cc1 | -2.79
24 | CCCOc1ccc(C2Nc3ccccc3C(=O)N2CCC)cc1OC (stereo not drawn) | -1.08
25 | COCCN1C(=S)NC2c3cccc(OC)c3OC1(C)C2C (stereo not drawn) | -0.58
26 | COc1ccc(N2C(=O)C(Cl)=C(Nc3ccc(C)cc3)C2=O)cc1 | 4.75
27 | COc1ccc(CNC(=O)CN(c2cccc(OC)c2)S(C)(=O)=O)cc1 | -1.43
28 | CCn1c2ccccc2c2cc(CN3CCN(c4ccc(C)cc4)CC3)ccc21 | 1.54
29 | CCOC(=O)N1CCN(c2c(NCCC(C)C)c(=O)c2=O)CC1 | 1.93
30 | CC1CC(NS(=O)(=O)c2cccs2)CC(C)(C)C1 (stereo not drawn) | 3.27
31 | CC(C)CC(NC(=O)N1CCC(N2CCCCC2)CC1)C(=O)NCC#N (stereo not drawn) | -0.972
32 | O=C(Nc1cccnc1)c1cc(=O)c2cc(Cl)ccc2o1 | 1.7
33 | Cc1nn(-c2ccccc2)c(-n2cccc2)c1C(=O)N1CCC(C(=O)N2CC(C)CC(C)C2)CC1 (stereo not drawn) | -3.35
34 | Oc1nnnc2c1sc1nc(-c3ccccc3)cc(-c3ccco3)c12 | -0.808
35 | COc1ccc(COC(=O)C2=C(C)NC(=O)CC2c2cc3c(cc2Br)OCO3)cc1 (stereo not drawn) | -4.16
36 | COCCCNC(=O)COc1ccc(-c2ccc(C#N)cc2)cc1 | -1.59
37 | O=C(NCc1ccc2c(c1)OCO2)c1nc(Cn2c(C(F)(F)F)nc3ccccc32)no1 | 2.62
38 | CN(C)CCN(Cc1ccccc1)Cc1c(F)cccc1Cl | 1.62
39 | Cc1ccc(-n2nnc(-c3nc(-c4ccccc4)no3)c2N)cc1C | -4.46
40 | O=C(NCc1ccc2c(c1)OCO2)c1ccc(CS(=O)c2ccc(Cl)cc2)o1 (stereo not drawn) | -8.9
41 | CCn1ncc(C(=O)Nc2cccc(Cl)c2)c1C | 6.03
42 | CC1CCN(S(=O)(=O)c2ccc(NC(=O)C3CC3)cc2)CC1 | 2.48

Row | Compound | % Inhibition @ 10 uM [%]
43 | C=CCNC(=O)C1CC=CCC1C(=O)N(c1ccccc1)c1ccccc1 (stereo not drawn) | -0.0217
44 | COc1ccc(CNC(=O)C2C3CCC(O3)C2C(=O)O)cc1 (stereo not drawn) | 0.142
45 | c1ccc2c(c1)ccn2Sn1cnc2ccccc21 | 6.94
46 | Cc1cc2oc3c(c(=O)c2cc1C)C(c1cccc(O)c1)N(c1nccs1)C3=O (stereo not drawn) | -5
47 | CC(C)CCNS(=O)(=O)c1ccc(Oc2ccc(S(=O)(=O)NCCC(C)C)cc2)cc1 | 1.17
48 | CC(C)(C)c1ccc(C(=O)Nc2nnc(COc3ccccc3)s2)cc1 | 2.7
49 | CCc1ccc(-n2nc(C)c3c(C(F)(F)F)cc(=O)n(CC(=O)NCc4ccco4)c32)cc1 | -0.656
50 | O=C(/C=C/C(=O)OCC(Cl)=C(Cl)Cl)Nc1ccc(Cl)cc1Cl | 1.17
51 | OC1COC(n2ccc3ccccc32)C(O)C1O (stereo not drawn) | -5.65
52 | O=C(NCc1ccccc1F)C1CCN(C(=O)c2ccc(-n3ccc4ccccc43)s2)CC1 | -4.33
53 | C=CCn1c(C)c(/C=C2\SC(=O)N(CC)C2=O)c2ccccc21 | -5.13
54 | CCOc1ccc(S(=O)(=O)Oc2ccc(Cl)cc2)c2ccccc12 | 1.67
55 | CC(C)(Oc1ccc(Cl)cc1)C(=O)N1CCN(C(=O)c2ccco2)CC1 | 0.0974
56 | CC(=O)Nc1c(C)cc(C(c2ccc(F)cc2)c2cc(C)c(NC(C)=O)c(C)c2)cc1C | 3
57 | COCCCNC(=O)C1CCN(c2nnc(C)c3c(C)n(-c4ccc(OC)cc4)nc23)CC1 | 4.88
58 | CC(C)NC(=O)C1CC(c2ccccc2F)=NO1 (stereo not drawn) | 4.41
59 | CCOc1cccc(C(=O)Nc2nnc(COc3ccc(C(C)CC)cc3)s2)c1 (stereo not drawn) | -1.93
60 | COC(=O)c1ccc(COC(=O)N[C@@H](CC(C)C)C(=O)NCC#N)cc1 | 3.19
61 | Cc1cc(C)n(CC(=O)N2CCC(C(N)=O)CC2)n1 | -4.11
62 | CN(C)CCCNc1c2ccccc2nc2ccccc12 | -3.5
63 | CC(C)CCN1C(=O)c2ccccc2C1C(=O)NCc1cccnc1 (stereo not drawn) | -1.29
